This note sets out measurements from the supplement of paper PMC3694890.

For the test, the target named is GRB2 (endogenous complexes from cell lysate), P62993. The test can be described thus: GRB2 complex binding differential signal (pY peptide minus Ala control peptide) (fluorescence intensity units); higher = stronger GRB2 complex binding.

± gives the uncertainty stated by the source. This is one part of the list. A small y stands for phosphotyrosine.
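Note: phosphopeptide probes on the chip at 1–4 µM, lysate proteins bound in 20 mM Tris pH 7.0 buffer with 140 mM NaCl, 1% Triton X-100 and 5% glycerol.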

With ySLGSA [VIME_Y38/A1], the “GRB2 complex binding differential signal” value was determined as 1110 ± 320 (MCF7), 451 ± 240 (MCF10A), 367 ± 570 (MDA-MB-231) and 565 ± 1300 (T47D).
Regarding yGSVTD [BSN_2038/A1], the “GRB2 complex binding differential signal” value reads like this: (MCF7) 1320 ± 460; (MCF10A) 454 ± 380; (MDA-MB-231) 916 ± 480; (T47D) 1100 ± 990.
On to yATRSS [VIME_Y61/A1], for which the “GRB2 complex binding differential signal” value was 4520 ± 410 (MCF7), 2760 ± 580 (MCF10A), 1450 ± 480 (MDA-MB-231) and 3650 ± 1300 (T47D).
The like results for yVTTST [VIME_Y30/A1] were, in that order, 3730 ± 1000, 3940 ± 1100, 3650 ± 440 and 3770 ± 2600.
Regarding yDSNSK [BMX_216/A1], the “GRB2 complex binding differential signal” value (MCF7) amounted to 1750 ± 260, the “GRB2 complex binding differential signal” value (MCF10A) stood at 1440 ± 640, the “GRB2 complex binding differential signal” value (MDA-MB-231) was 1140 ± 450 and the “GRB2 complex binding differential signal” value (T47D) amounted to 1460 ± 1200.
The corresponding values for yIVLPI [VEGFR2_1175/A1] are 853 ± 950, 2210 ± 570, 1840 ± 610 and 1290 ± 1100.
The like results for yFASSS [BSN_1471/A1] were, in that order, 863 ± 550, 110 ± 270, 1000 ± 280 and 2090 ± 1400.
The corresponding values for yESVAA [VIME_Y276/A1] are 1090 ± 700, 3070 ± 320, 2570 ± 680 and 2620 ± 1200.
Regarding yIVTEF [YES_345/A1], the “GRB2 complex binding differential signal” value reads like this: (MCF7) 68.6 ± 560; (MCF10A) 227 ± 230; (MDA-MB-231) 633 ± 360; (T47D) -78.9 ± 2100.
The like results for yTARSA [ZAP70_493/A1] were, in that order, 2270 ± 590, 1640 ± 810, 1010 ± 470 and 1530 ± 1200.
The like results for yLSIIM [VEGFR1_794/A1] were, in that order, 389 ± 580, 539 ± 290, 1150 ± 490 and 358 ± 1200.
As to ySSMSD [BSN_1980/A1], the “GRB2 complex binding differential signal” value runs as follows: (MCF7) 1250 ± 460; (MCF10A) 394 ± 230; (MDA-MB-231) 596 ± 340; (T47D) 203 ± 1200.
The corresponding values for yTPEPA [ZAP70_292/A1] are 180 ± 380, 637 ± 1000, 752 ± 360 and 1170 ± 1500.
The like results for yPQGLP [BSN_1971/A1] were, in that order, 452 ± 830, 308 ± 540, 664 ± 490 and 1060 ± 1200.
As for yYITTR [YES_222/A1], the “GRB2 complex binding differential signal” value is, setting by setting: (MCF7) 179 ± 210; (MCF10A) 348 ± 240; (MDA-MB-231) 377 ± 340; (T47D) 199 ± 700.
The like results for ySPSPS [BSN_1125/A1] were, in that order, 1330 ± 340, 2660 ± 910, 903 ± 510 and 780 ± 1700.
The corresponding values for yGVSPN [ABL1_226/A1] are 2190 ± 1300, 2000 ± 510, 551 ± 700 and 1170 ± 1100.
On to yGAEPT [YES_32/A1], for which the “GRB2 complex binding differential signal” value is 799 ± 260 (MCF7), 1210 ± 410 (MCF10A), 1890 ± 530 (MDA-MB-231) and 2280 ± 1200 (T47D).
The corresponding values for yVSSVG [BMX_566/A1] are 2060 ± 460, 2740 ± 670, 1000 ± 360 and 2180 ± 1200.
The like results for yIDKVR [VIME_Y117/A1] were, in that order, 2060 ± 720, 862 ± 880, 495 ± 320 and 469 ± 870.
The corresponding values for ySSVSN [BSN_2060/A1] are 3190 ± 620, 3340 ± 930, 288 ± 270 and 2600 ± 2000.
Turning to yDNTAG [VEGFR2_1214/A1], the “GRB2 complex binding differential signal” value by setting is: (MCF7) 1230 ± 320; (MCF10A) 1490 ± 370; (MDA-MB-231) 1090 ± 410; (T47D) 2110 ± 1200.
yEPPPV [BLNK_96/A1]: the “GRB2 complex binding differential signal” value came out at 2620 ± 2300 (MCF7), 4410 ± 790 (MCF10A), 2750 ± 700 (MDA-MB-231) and 2460 ± 1300 (T47D).
Regarding yACASP [BRAF_746/A1], the “GRB2 complex binding differential signal” value runs as follows: (MCF7) 1080 ± 360; (MCF10A) 858 ± 320; (MDA-MB-231) 904 ± 490; (T47D) 4090 ± 1300.
The corresponding values for yLSIVM [VEGFR2_801/A1] are 387 ± 220, 218 ± 270, 782 ± 300 and 272 ± 880.
The corresponding values for yASSPG [VIME_Y53/A1] are 1650 ± 390, 1960 ± 450, 1100 ± 310 and 1050 ± 1200.
For yAKISD [ZAP70_474/A1], the “GRB2 complex binding differential signal” value (MCF7) came out at 993 ± 380, the “GRB2 complex binding differential signal” value (MCF10A) was 617 ± 180, the “GRB2 complex binding differential signal” value (MDA-MB-231) was 512 ± 580 and the “GRB2 complex binding differential signal” value (T47D) amounted to 338 ± 1500.
The like results for yHAQRI [BSN_1995/A1] were, in that order, 1660 ± 570, 1820 ± 740, 646 ± 310 and 973 ± 1100.
The like results for yGSQPN [BMX_224/A1] were, in that order, 1160 ± 430, 1270 ± 290, 384 ± 430 and 929 ± 1200.
The like results for yKDFLT [VEGFR2_996/A1] were, in that order, 280 ± 240, 246 ± 220, 1060 ± 610 and 731 ± 790.
With yVGAIP [VEGFR2_951/A1], the “GRB2 complex binding differential signal” value was found to be 1920 ± 780 (MCF7), 1260 ± 410 (MCF10A), 856 ± 390 (MDA-MB-231) and 287 ± 850 (T47D).
Turning to yIPSNY [p59Fyn_132/A1], the “GRB2 complex binding differential signal” value is 535 ± 840 (MCF7), 374 ± 490 (MCF10A), 620 ± 360 (MDA-MB-231) and 1060 ± 1100 (T47D).
The corresponding values for yYTARS [ZAP70_492/A1] are 4630 ± 520, 1120 ± 270, 1220 ± 430 and 1990 ± 1400.
